# According to PMC8854406:
# Sequences of proteins named here, by UniProt entry; tags and fusion partners are left off.
# UniProt P35240: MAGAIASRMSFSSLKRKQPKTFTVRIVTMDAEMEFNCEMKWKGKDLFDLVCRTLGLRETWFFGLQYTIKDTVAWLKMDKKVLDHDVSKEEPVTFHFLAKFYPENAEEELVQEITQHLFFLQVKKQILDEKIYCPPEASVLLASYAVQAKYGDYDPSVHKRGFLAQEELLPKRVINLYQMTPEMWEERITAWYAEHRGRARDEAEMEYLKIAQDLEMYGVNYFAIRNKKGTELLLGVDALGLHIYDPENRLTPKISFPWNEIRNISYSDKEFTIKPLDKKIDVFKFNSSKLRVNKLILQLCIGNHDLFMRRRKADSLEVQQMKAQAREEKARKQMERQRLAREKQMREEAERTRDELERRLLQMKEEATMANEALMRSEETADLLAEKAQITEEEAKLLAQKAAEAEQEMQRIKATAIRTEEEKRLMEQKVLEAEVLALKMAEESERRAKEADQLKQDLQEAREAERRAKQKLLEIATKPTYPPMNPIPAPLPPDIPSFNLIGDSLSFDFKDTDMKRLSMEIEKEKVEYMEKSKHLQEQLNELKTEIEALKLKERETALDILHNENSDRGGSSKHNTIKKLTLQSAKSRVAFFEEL
# These are yes or no findings as the source states them, for the method shown. In cells and extracts the contact can be indirect. Some entries that bind do so weakly or less than the wild type. Tags and fused reporters may be left off the sequences shown.
# Biological target: T1, Myc-KIRREL1-HA (full-length KIRREL1) (UniProt Q96J84)
# T1 sequence: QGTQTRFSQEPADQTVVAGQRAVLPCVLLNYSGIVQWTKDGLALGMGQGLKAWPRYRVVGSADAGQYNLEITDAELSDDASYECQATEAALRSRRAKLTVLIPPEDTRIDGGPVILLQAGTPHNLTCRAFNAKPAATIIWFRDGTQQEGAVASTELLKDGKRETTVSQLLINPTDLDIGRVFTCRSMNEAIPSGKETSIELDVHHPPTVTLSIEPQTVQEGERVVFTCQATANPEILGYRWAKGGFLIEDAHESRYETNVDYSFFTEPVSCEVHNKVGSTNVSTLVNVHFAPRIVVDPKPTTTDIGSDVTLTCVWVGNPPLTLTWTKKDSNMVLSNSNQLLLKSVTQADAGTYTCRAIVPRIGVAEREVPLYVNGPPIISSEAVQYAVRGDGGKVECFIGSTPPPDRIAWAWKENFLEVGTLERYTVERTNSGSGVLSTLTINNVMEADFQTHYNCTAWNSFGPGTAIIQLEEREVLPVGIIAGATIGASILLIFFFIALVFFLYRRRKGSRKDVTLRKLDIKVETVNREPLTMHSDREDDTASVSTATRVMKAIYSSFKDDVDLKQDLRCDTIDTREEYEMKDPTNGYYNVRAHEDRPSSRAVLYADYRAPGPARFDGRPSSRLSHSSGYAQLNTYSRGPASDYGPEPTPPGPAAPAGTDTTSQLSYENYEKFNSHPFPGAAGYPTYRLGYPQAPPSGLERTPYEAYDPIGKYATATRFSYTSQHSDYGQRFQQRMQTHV
# Experiment: co-IP; HEK293T cells co-transfected; NP40 lysis buffer; cleared lysates incubated with anti-Flag tag or anti-Myc tag magnetic beads overnight at 4 °C; beads washed four times; immunoblot
substance,measurement,value
Flag-tagged NF2 (from UniProt P35240 1-595),binding,binds weakly
